Inconclusive results are not listed. For part of its entries the source gives two or more results. This list holds those alone. There may be further records. Results that share an entry are repeated measurements across runs, samples, wells, individuals or studies. Additions like (4×) give the number of equal values in this list.
System: MX-1 breast xenograft, nude mice, tumor weight T/C
Assay: NCI In Vivo Anticancer Drug Screen. Data for tumor model Human Mammary Carcinoma MX-1 Xenograft (intrarenal inoculation) in NU/NU Swiss (nude) mice
Conditions: endpoint: mean tumor weight change, higher = larger tumour
Method in brief: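 Read-out: treated (T) over vehicle control (C) ratio of survival or tumor size. Dosing in animals carrying the transplanted tumor.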

[1] = dose: 200.0 mg/kg/injection, schedule: Q01DX010 (sc), vehicle: saline with Tween-80
[2] = dose: 12.5 mg/kg/injection, schedule: Q01DX010 (sc), vehicle: saline
[3] = dose: 100.0 mg/kg/injection, schedule: Q01DX010 (sc), vehicle: water
[4] = dose: 100.0 mg/kg/injection, schedule: Q01DX010 (sc), vehicle: saline with Tween-80

With `O=C1NC2(CCCCC2)C(=O)N1CCN(CCCl)CCCl` the T/C (dose: 6.0 mg/kg/injection, schedule: Q01DX010 (sc), vehicle: saline) was -47 % of control and 67 % of control, the T/C (dose: 12.0 mg/kg/injection, schedule: Q01DX010 (sc), vehicle: saline) was -36 % of control, 14 % of control, 16 % of control and the T/C (dose: 24.0 mg/kg/injection, schedule: Q01DX010 (sc), vehicle: saline) was -65 % of control, -55 % of control, -36 % of control. For the same molecule, the T/C (dose: 48.0 mg/kg/injection, schedule: Q01DX010 (sc), vehicle: saline) was -100 % of control and -70 % of control.
`Cc1ncc([N+](=O)[O-])n1CCSC(N)=O` was tested, and the T/C [1] was 16 % of control and 61 % of control, the T/C (dose: 800.0 mg/kg/injection, schedule: Q01DX010 (sc), vehicle: saline with Tween-80) was 48 % of control and 89 % of control and the T/C (dose: 1600.0 mg/kg/injection, schedule: Q01DX010 (sc), vehicle: saline with Tween-80) was 38 % of control and 72 % of control.
In the case of `[Cl][Pt+2][Cl].[NH-]C1CCC1.[NH2-]`, the T/C (dose: 12.5 mg/kg/injection, schedule: Q04DX003 (sc), vehicle: suspension in saline) is reported as -100 % of control and 27 % of control.
For `COC1C(/C=C/C(C)=O)OC2OC(C)(C)OC21` (stereo not drawn), the T/C (dose: 300.0 mg/kg/injection, schedule: Q04DX003 (sc), vehicle: suspension in saline) was 78 % of control and 154 % of control.
With `CNC(=O)/C=C/C1=CN2C(=O)c3ccc(C)c(O)c3NC(OC)C2C1` (stereo not drawn) the T/C (dose: 0.4 mg/kg/injection, schedule: Q04DX003 (sc), vehicle: saline) was -100 % of control and 72 % of control and the T/C (dose: 0.8 mg/kg/injection, schedule: Q04DX003 (sc), vehicle: saline) was -100 % of control and 19 % of control.
For `NC1=NCN(C2OC(CO)C(O)C2O)C(=O)N1` (stereo not drawn), the T/C (dose: 50.0 mg/kg/injection, schedule: Q04DX003 (sc), vehicle: saline) was 38 % of control and 121 % of control.
`CC(C)[NH-].CC(C)[NH-].O.O.[Cl][Pt+2][Cl]` was tested, and the T/C (dose: 12.5 mg/kg/injection, schedule: Q01DX010 (sc), vehicle: dextrose) was -79 % of control and -10 % of control.
With `CC1(C)OCC(CO)(Nc2nc(N3CC3)nc(N3CC3)n2)CO1` the T/C (dose: 1.25 mg/kg/injection, schedule: Q01DX010 (sc), vehicle: saline) was -68 % of control and 4 % of control.
In the case of `Cc1c2ccncc2c(C)c2c1[nH]c1ccccc12`, the T/C [2] is reported as 69 % of control and 221 % of control and the T/C (dose: 25.0 mg/kg/injection, schedule: Q01DX010 (sc), vehicle: saline) is reported as 52 % of control, 54 % of control, 96 % of control.
`C=C1C(C)C2C(Cc3ccccc3)NC(=O)C23C(OC(C)=O)/C=C/C(C)(O)CC(C)C/C=C/C3C1O` (stereo not drawn) was tested, and the T/C (dose: 6.25 mg/kg/injection, schedule: Q04DX003 (sc), vehicle: Klucel (hydroxypropylcellulose) (HPC)) was 74 % of control and 110 % of control.
In the case of `OCC1OC(n2cnc3c(=S)nc[nH]c32)C(O)C1O` (stereo not drawn), the T/C (dose: 50.0 mg/kg/injection, schedule: Q01DX010 (sc), vehicle: saline) is reported as 19 % of control and 53 % of control.
For `CC1OC(=O)C(C(C)C)NC(=O)C(C(C)C)OC(=O)C(C(C)C)NC(=O)C(C)OC(=O)C(C(C)C)NC(=O)C(C(C)C)OC(=O)C(C(C)C)NC(=O)C(C)OC(=O)C(C(C)C)NC(=O)C(C(C)C)OC(=O)C(C(C)C)NC1=O` (stereo not drawn), the T/C (dose: 20.0 mg/kg/injection, schedule: Q01DX010 (sc), vehicle: saline with Tween-80) was 46 % of control and 73 % of control.
For `NC(=O)SCC(N)C(=O)O` (stereo not drawn), the T/C (dose: 900.0 mg/kg/injection, schedule: Q04DX003 (sc), vehicle: suspension in saline) was 15 % of control and 55 % of control.
In the case of `O=P1(N(CCCl)CCCl)NCCCO1` (stereo not drawn), the T/C [2] is reported as -46 % of control and 8 % of control.
In the case of `CN(C)C=O`, the T/C (dose: 400.0 mg/kg/injection, schedule: Q01DX010 (sc), vehicle: saline) is reported as 18 % of control, 32 % of control, 49 % of control and the T/C (dose: 3200.0 mg/kg/injection, schedule: Q01DX010 (sc), vehicle: saline) is reported as 1 % of control, 8 % of control, 35 % of control.
With `O=C(O)CC(NC(=O)CP(=O)(O)O)C(=O)O.[NH-]C1CCCCC1[NH-].[Pt+2]` (stereo not drawn) the T/C (dose: 50.0 mg/kg/injection, schedule: Q04DX003 (sc), vehicle: dextrose) was 14 % of control and 52 % of control.
`O=C(O)c1c2c(nc3ccccc13)Cc1ccccc1-2` was tested, and the T/C (dose: 50.0 mg/kg/injection, schedule: Q01DX010 (sc), vehicle: water) was 68 % of control and 198 % of control and the T/C [3] was 29 % of control and 178 % of control.
`CC(C)[C@](O)(C(=O)OCC1=CC[N+]2([O-])CC[C@@H](O)[C@@H]12)[C@H](C)O` (stereo partly drawn) was tested, and the T/C [3] was 23 % of control, 40 % of control, 82 % of control, the T/C (dose: 200.0 mg/kg/injection, schedule: Q01DX010 (sc), vehicle: water) was 46 % of control, 65 % of control, 74 % of control and the T/C (dose: 400.0 mg/kg/injection, schedule: Q01DX010 (sc), vehicle: water) was 7 % of control, 30 % of control, 41 % of control. For the same molecule, the T/C (dose: 800.0 mg/kg/injection, schedule: Q01DX010 (sc), vehicle: water) was -65 % of control, -51 % of control, 4 % of control.
In the case of `O=C(NO)c1ccc(O)c(O)c1`, the T/C (dose: 400.0 mg/kg/injection, schedule: Q04DX003 (sc), vehicle: distilled water + Tween-80) is reported as 15 % of control and 96 % of control, the T/C (dose: 600.0 mg/kg/injection, schedule: Q04DX003 (sc), vehicle: distilled water + Tween-80) is reported as 51 % of control and 94 % of control and the T/C (dose: 800.0 mg/kg/injection, schedule: Q04DX003 (sc), vehicle: distilled water + Tween-80) is reported as 34 % of control and 85 % of control.
With `CO[C@@]12[C@H](COC(N)=O)C3=C(C(=O)C(C)=C(N)C3=O)N1C[C@@H]1N[C@@H]12` the T/C (dose: 1.5 mg/kg/injection, schedule: Q04DX003 (sc), vehicle: saline) was -74 % of control and -35 % of control.
For `CN1CCN(Cc2nc3cccc4c3c([n+]2[O-])-c2ccccc2-4)CC1`, the T/C (dose: 50.0 mg/kg/injection, schedule: Q01DX010 (sc), vehicle: saline with Tween-80) was 35 % of control and 108 % of control, the T/C [4] was 109 % of control and 155 % of control and the T/C [1] was 40 % of control and 81 % of control.
For `CC(C)NC(=O)OCc1c(COC(=O)NC(C)C)c(-c2ccc(Cl)c(Cl)c2)n2c1CCC2`, the T/C (dose: 400.0 mg/kg/injection, schedule: Q01DX010 (sc), vehicle: distilled water + Tween-80) was -30 % of control, 16 % of control, 21 % of control and the T/C (dose: 800.0 mg/kg/injection, schedule: Q01DX010 (sc), vehicle: distilled water + Tween-80) was -54 % of control (2×) and 5 % of control.
In the case of `O=NN(CCCl)C(=O)NCCO`, the T/C (dose: 6.25 mg/kg/injection, schedule: Q04DX003 (sc), vehicle: water) is reported as 41 % of control and 189 % of control.
For `CC(=O)Nc1ccc(C(=O)C=O)cc1`, the T/C (dose: 25.0 mg/kg/injection, schedule: Q01DX010 (sc), vehicle: saline with Tween-80) was 96 % of control and 156 % of control and the T/C [4] was 121 % of control and 164 % of control.
`CC(=O)OCC1OC(n2cc(CBr)nn2)C(OC(C)=O)C(OC(C)=O)C1OC(C)=O` (stereo not drawn) was tested, and the T/C [4] was 17 % of control and 104 % of control.
With `O=C(Nc1ccc(N=C=S)cc1Cl)c1cc(Cl)cc(Cl)c1O` the T/C (dose: 200.0 mg/kg/injection, schedule: Q04DX003 (sc), vehicle: Klucel (hydroxypropylcellulose) (HPC)) was 68 % of control and 116 % of control.
`COc1cc(NCc2ccc3nc(N)nc(N)c3c2C)cc(OC)c1OC` was tested, and the T/C (dose: 5.0 mg/kg/injection, schedule: Q01DX010 (sc), vehicle: sodium bicarbonate) was 19 % of control, 112 % of control, 180 % of control and the T/C (dose: 10.0 mg/kg/injection, schedule: Q01DX010 (sc), vehicle: sodium bicarbonate) was 62 % of control and 123 % of control.
With `Nc1nnc[se]1` the T/C (dose: 200.0 mg/kg/injection, schedule: Q04DX003 (sc), vehicle: saline with Tween-80) was 40 % of control, 85 % of control, 99 % of control, the T/C (dose: 400.0 mg/kg/injection, schedule: Q04DX003 (sc), vehicle: saline with Tween-80) was 16 % of control, 48 % of control, 73 % of control and the T/C (dose: 800.0 mg/kg/injection, schedule: Q04DX003 (sc), vehicle: saline with Tween-80) was 8 % of control, 41 % of control, 62 % of control.
`CO[C@H](C(=O)[C@@H](O)[C@@H](C)O)[C@@H]1Cc2cc3cc(OC4CC(OC5CC(O)C(O)C(C)O5)C(O)C(C)O4)c(C)c(O)c3c(O)c2C(=O)[C@H]1OC1CC(OC2CC(OC3CC(C)(O)C(O)C(C)O3)C(O)C(C)O2)C(O)C(C)O1` (stereo partly drawn) was tested, and the T/C (dose: 0.5 mg/kg/injection, schedule: Q01DX010 (sc), vehicle: saline) was -100 % of control and 55 % of control and the T/C (dose: 1.0 mg/kg/injection, schedule: Q01DX010 (sc), vehicle: saline) was -69 % of control and -8 % of control.
`CC[N+](CC)(CC)CC` was tested, and the T/C (dose: 6.0 mg/kg/injection, schedule: Q01DX010 (sc), vehicle: saline with Tween-80) was 90 % of control and 168 % of control and the T/C (dose: 12.0 mg/kg/injection, schedule: Q01DX010 (sc), vehicle: saline with Tween-80) was 57 % of control and 161 % of control.

— PubChem BioAssay AID296 (DTP/NCI, 2004)
